Hit rate of the full screen: of about 45,000 compounds, about 65 (0.1%) were called active. Calls come from the whole dose curve; as a rule, active = well fitted activation curve with a large enough effect; inconclusive = small, poorly fitted or top-dose-only effect; inactive = no such curve, though single readings can be large or run the other way. The list shows a part of the results.
What follows are compounds tested against Galactocerebrosidase (Homo sapiens) (UniProt P54803) (assay: A Novel Cell-Based Assay to Identify Small Molecules for B -Galactocerebrosidase). Details: 145M-Twi-hGALC-G270D cells (Twitcher mouse brain line with human GALC G270D), HMU-beta-Gal fluorescence, 48 h; series mostly up to 57.5 µM; activation: at the top concentration.
UniProt P54803, sequence (P54803 whole entry, looked up): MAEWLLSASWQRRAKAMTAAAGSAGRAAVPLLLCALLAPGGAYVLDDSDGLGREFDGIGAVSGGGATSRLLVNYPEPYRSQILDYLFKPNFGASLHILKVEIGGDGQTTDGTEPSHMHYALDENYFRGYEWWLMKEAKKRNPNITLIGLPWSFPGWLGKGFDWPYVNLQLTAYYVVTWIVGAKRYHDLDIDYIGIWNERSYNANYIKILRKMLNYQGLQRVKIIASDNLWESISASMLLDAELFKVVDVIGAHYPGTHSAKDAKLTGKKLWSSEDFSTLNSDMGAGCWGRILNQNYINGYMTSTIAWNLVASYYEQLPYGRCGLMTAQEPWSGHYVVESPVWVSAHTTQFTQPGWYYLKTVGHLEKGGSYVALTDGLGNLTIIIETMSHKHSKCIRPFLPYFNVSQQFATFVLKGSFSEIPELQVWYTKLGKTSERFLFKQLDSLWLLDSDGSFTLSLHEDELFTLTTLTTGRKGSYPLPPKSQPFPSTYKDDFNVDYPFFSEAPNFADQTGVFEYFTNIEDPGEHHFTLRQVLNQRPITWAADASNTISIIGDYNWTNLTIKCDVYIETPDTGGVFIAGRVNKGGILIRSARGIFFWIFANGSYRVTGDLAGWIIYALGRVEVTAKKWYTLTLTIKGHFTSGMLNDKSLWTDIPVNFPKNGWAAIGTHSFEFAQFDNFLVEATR
Method in brief: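 Mutant human GALC (G270D), stably expressed in a Twitcher mouse brain cell line lacking endogenous GALC, is measured in live-treated cells via 6-hexadecanoylamino-4-methylumbelliferyl-β-galactoside hydrolysis (0.1 mM final, pH 5.2) with fluorescent detection.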
Note: 0% is about no effect; nearly all actives have a fitted effect of over 65% in size.

activation, inactive:
COc1ccc(NC(=O)Nc2nnc(N(CC(C)C)CC(C)C)s2)c(OC)c1 -15.4%
COc1ccc(NC(=O)c2cc(C3CC3)nc3c2c(C)nn3-c2ccccc2)cc1OC -2.17%
COc1ccc(-n2c(=O)c3ccc(C(=O)NCc4ccc(C)cc4)cc3n(Cc3ccc(Cl)cc3)c2=O)cc1 -11.2%
COc1ccc(-n2nc3c(N4CCCC(C(=O)NCCc5ccccc5C)C4)nnc(C)c3c2C)cc1 (stereo unspecified) -9.58%
COCCn1c(C)cc(O)c(C(c2ccc(F)cc2)N2CCC(C)CC2)c1=O (stereo unspecified) -19.8%
CCOc1ccccc1NC(=O)Cn1c(=O)n(C(C)C)c(=O)c2oc3ccccc3c21 -17.4%
Cc1cccc(CSc2ncccc2C(=O)O)c1 17%
O=S(=O)(c1ccc(-c2cnc(C3CC3)o2)cc1)N1CCN(c2ccccc2)CC1 -6.29%
CC1=C(C(=O)OC2CCCC2)C(c2ccccc2C(F)(F)F)CC(=O)N1 (stereo unspecified) -5.36%
COc1cccc(NC(=O)Cn2c(=O)n(-c3ccccc3)c(=O)c3c2c2cc(OC)ccc2n3C)c1 -17.6%
Cc1ccc(N(CC(=O)Nc2ccc(C)c(Cl)c2)S(=O)(=O)c2cccs2)cc1 -11.9%
COc1ccccc1CNC(=O)c1nnn(CC(=O)Nc2c(C)cccc2C)c1N 0.598%
Cn1c(C(=O)Nc2ccc(OC(F)(F)F)cc2)cc2c(=O)n3ccccc3nc21 3.85%
Cc1ccccc1OCC(=O)OCc1cc(=O)n2nc(-c3cccs3)sc2n1 -0.541%
CC(=O)c1ccc(N2CCN(c3ncnc4c3cnn4-c3cc(Cl)ccc3C)CC2)cc1 -41.2%
Cc1ccc(CNC(=O)CN2N=C(c3ccccc3)CCC2=O)cc1 -17.5%
CCOc1ccccc1NC(=O)c1c(NC(=O)Cc2ccc(OC)cc2)sc2c1CCC2 -14.1%
CCc1cccc(NC(=O)c2ccc3c(c2)c(C)c(C)n3Cc2ccc(F)cc2)c1 -18.9%
Cc1ccc(OCC(=O)Nc2cccc(C(=O)OCc3cc(=O)n4c(C)csc4n3)c2)cc1 -4.35%
Cc1ccc(CN2COc3c(Cl)cc4c(-c5ccccc5)cc(=O)oc4c3C2)cc1 -20.8%
Cc1ccc(NC(=O)COc2ccc3oc4c(c3c2)CCCC4)cc1C -17%
O=C(c1ccc2c(c1)N(Cc1ccc(Cl)cc1)C(=O)c1ccccc1S2(=O)=O)N1CCN(c2ccccn2)CC1 -9.99%
COc1cc(-c2nc3ccc(Cl)cn3c2Nc2ccc3c(c2)OCCO3)ccc1O -20.8%
Cc1cccc(CSc2nnc3[nH]c(=O)cc(-c4ccccc4)n23)c1 -7.62%
CCOc1ccc(NC(=O)N2CCC(N3CCCCC3)CC2)cc1 -14.1%
O=C(Nc1cc(Cl)cc(Cl)c1)c1ccc(F)c(S(=O)(=O)N2CCN(c3ccccc3F)CC2)c1 -14.4%

Reference: PubChem BioAssay AID1159614 (National Center for Advancing Translational Sciences (NCATS), 2016)
